Assay results from patent publication US20230250147A1 (Sanofi, published 2023).
Values belong to the binder of their own block, whether it stands above or below them.

Assays:
Assay in all cases: cell-based or functional assay
[1] = target: human glucagon-like peptide-1 (GLP-1) receptor (human, UniProt P43220 24-463)
Monkey GLP-1R = Monkey GLP-1R (monkey)
Mouse GLP-1R = target: T1, Mouse GLP-1R (mouse, UniProt O35659 22-463)
T1 sequence (looked up): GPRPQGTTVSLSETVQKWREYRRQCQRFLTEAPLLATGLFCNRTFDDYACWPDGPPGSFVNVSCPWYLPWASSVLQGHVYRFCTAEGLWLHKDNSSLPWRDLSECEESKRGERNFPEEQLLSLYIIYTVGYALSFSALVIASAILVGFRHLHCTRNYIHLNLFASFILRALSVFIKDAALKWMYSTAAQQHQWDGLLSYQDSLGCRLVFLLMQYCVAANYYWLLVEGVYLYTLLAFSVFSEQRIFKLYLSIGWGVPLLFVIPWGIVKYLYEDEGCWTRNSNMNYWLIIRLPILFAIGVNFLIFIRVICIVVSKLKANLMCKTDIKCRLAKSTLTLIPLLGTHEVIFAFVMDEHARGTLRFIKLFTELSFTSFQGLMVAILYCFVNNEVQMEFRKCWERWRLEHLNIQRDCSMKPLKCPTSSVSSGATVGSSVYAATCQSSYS

[2] = target: T2, human FGFR1c together with human beta-Klotho (KLB) (human, UniProt P11362 22-822; Q86Z14 1-1044)
[3] = target: T2, human FGFR1c together with human …; remark: listed apart in the source

T2 sequence (P11362 22-822, chain 1 of 2): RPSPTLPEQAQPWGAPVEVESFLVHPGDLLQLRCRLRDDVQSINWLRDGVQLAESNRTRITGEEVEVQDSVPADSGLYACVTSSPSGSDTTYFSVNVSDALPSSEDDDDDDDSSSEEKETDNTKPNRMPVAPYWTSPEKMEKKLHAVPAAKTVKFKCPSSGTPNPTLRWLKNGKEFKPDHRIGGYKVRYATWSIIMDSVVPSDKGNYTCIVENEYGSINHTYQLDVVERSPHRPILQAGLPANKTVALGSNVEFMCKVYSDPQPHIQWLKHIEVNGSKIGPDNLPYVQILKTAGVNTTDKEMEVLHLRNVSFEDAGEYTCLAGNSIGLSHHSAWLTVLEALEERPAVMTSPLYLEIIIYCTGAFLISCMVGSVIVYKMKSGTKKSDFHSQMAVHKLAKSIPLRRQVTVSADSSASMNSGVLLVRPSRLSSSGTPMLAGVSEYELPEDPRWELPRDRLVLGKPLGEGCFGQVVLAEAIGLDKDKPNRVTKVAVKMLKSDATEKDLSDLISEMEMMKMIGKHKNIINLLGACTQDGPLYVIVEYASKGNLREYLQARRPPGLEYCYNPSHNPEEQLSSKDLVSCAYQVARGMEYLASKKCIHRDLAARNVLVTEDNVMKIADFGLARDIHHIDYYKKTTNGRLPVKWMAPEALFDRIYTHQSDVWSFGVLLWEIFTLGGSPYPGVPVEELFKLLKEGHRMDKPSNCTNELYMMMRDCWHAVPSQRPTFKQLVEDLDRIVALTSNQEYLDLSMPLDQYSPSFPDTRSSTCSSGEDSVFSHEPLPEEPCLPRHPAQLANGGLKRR
T2 sequence (Q86Z14 whole entry, chain 2 of 2, further chain): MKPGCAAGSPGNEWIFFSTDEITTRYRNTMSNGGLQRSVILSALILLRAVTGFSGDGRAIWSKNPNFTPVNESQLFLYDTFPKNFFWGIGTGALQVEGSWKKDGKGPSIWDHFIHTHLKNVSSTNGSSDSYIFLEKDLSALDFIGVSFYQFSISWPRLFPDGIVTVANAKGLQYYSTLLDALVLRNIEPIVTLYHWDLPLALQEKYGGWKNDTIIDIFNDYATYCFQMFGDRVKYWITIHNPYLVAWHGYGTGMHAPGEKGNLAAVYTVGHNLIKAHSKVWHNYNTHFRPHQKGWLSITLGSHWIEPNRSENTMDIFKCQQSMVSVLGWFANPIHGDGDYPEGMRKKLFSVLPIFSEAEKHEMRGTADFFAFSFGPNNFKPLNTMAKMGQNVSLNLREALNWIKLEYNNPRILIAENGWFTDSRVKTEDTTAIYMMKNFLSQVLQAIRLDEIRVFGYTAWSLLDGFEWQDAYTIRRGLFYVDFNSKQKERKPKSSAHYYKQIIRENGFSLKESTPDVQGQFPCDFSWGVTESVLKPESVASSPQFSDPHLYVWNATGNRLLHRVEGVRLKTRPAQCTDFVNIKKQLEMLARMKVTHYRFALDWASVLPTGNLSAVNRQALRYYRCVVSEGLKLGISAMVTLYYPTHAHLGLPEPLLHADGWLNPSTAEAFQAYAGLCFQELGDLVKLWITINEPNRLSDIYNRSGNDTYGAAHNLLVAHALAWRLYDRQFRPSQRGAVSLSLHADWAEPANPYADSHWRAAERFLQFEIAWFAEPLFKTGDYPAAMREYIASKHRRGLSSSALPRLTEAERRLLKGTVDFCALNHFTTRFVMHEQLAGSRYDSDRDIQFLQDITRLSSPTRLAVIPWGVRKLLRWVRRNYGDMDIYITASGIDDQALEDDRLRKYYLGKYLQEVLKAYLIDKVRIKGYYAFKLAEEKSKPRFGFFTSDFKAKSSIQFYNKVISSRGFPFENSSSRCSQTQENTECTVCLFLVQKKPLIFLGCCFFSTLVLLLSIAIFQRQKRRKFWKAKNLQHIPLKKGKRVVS

HTRF cAMP EC50 [1]: 147 pM | HTRF cAMP EC50 (Monkey GLP-1R): 189 pM | HTRF cAMP EC50 (Mouse GLP-1R): 128 pM
B1: GLP-1RA/FGF21 Fc fusion protein SEQ ID NO: 207 (Fc fusion)
chain: HGEGTFTSDLSKQLEKRLVRLFYEWLKNGGHSSGKPPPKGGGGGGGSGGGGSGGGGSA[… human IgG4 Fc with changes …]GGGSGSAHPIPDSSPLLQFGGQVRQRYLYTDDACQTEAHLEIREDGTVGGAADQSPESLLQLKALKPGVIQILGVKTSRFLCQRPDGALYGSLHFDPEACSFRELLLEDGYNVYQSEAHGLPLHLPGCKSPHRDPAPRGPARFLPLPGLPPAPPEPPGILAPQPPDVGSSDPLSMVGSQGRSPSYAS

HTRF cAMP EC50 [1]: 107 pM | HTRF cAMP EC50 (Monkey GLP-1R): 151 pM | HTRF cAMP EC50 (Mouse GLP-1R): 93.7 pM
B2: GLP-1RA/FGF21 Fc fusion protein SEQ ID NO: 206 (Fc fusion)
chain: HGEGTFTSDLSKQLEKRLVRLFYEWLLNGGHSSQKPPPKGGGGGGGSGGGGSGGGGSA[… human IgG4 Fc with changes …]GGGSGSAHPIPDSSPLLQFGGQVRQRYLYTDDACQTEAHLEIREDGTVGGAADQSPESLLQLKALKPGVIQILGVKTSRFLCQRPDGALYGSLHFDPEACSFRELLLEDGYNVYQSEAHGLPLHLPGCKSPHRDPAPRGPARFLPLPGLPPAPPEPPGILAPQPPDVGSSDPLSMVGSQGRSPSYAS

HTRF cAMP EC50 [1]: 103 pM | HTRF cAMP EC50 (Monkey GLP-1R): 93.5 pM | HTRF cAMP EC50 (Mouse GLP-1R): 65.7 pM
B3: GLP-1RA/FGF21 Fc fusion protein SEQ ID NO: 204 (Fc fusion)
chain: HGEGTFTSDLSKQLEKELVRLFYEWLIKGGHSKGKPPPKGGGGGGGSGGGGSGGGGSA[… human IgG4 Fc with changes …]GGGSGSAHPIPDSSPLLQFGGQVRQRYLYTDDACQTEAHLEIREDGTVGGAADQSPESLLQLKALKPGVIQILGVKTSRFLCQRPDGALYGSLHFDPEACSFRELLLEDGYNVYQSEAHGLPLHLPGCKSPHRDPAPRGPARFLPLPGLPPAPPEPPGILAPQPPDVGSSDPLSMVGSQGRSPSYAS

HTRF cAMP EC50 [1]: 100 pM | HTRF cAMP EC50 (Monkey GLP-1R): 128 pM | HTRF cAMP EC50 (Mouse GLP-1R): 71.7 pM
B4: GLP-1RA/FGF21 Fc fusion protein SEQ ID NO: 202 (Fc fusion)
chain: HGEGTFTSDLSKQLEKELVRLFYEWLIKGGHSSIKPPPKGGGGGGGSGGGGSGGGGSA[… human IgG4 Fc with changes …]GGGSGSAHPIPDSSPLLQFGGQVRQRYLYTDDACQTEAHLEIREDGTVGGAADQSPESLLQLKALKPGVIQILGVKTSRFLCQRPDGALYGSLHFDPEACSFRELLLEDGYNVYQSEAHGLPLHLPGCKSPHRDPAPRGPARFLPLPGLPPAPPEPPGILAPQPPDVGSSDPLSMVGSQGRSPSYAS

HTRF cAMP EC50 [1]: 27.8 pM | HTRF cAMP EC50 (Monkey GLP-1R): 26.6 pM | HTRF cAMP EC50 (Mouse GLP-1R): 53.5 pM | pFGFR ICW EC50 [2]: 13.6 nmol/L | pERK ICW EC50 [3]: 6.19 nmol/L
B5: GLP-1RA/FGF21 Fc fusion protein SEQ ID NO: 71 (Fc fusion)
chain: FGEGTFTSDKSKQLEKRLVRLFIEWLIAGGHSSGKPPPKGGGGGGGSGGGGSGGGGSA[… human IgG4 Fc with changes …]GGGSGSAHPIPDSSPLLQFGGQVRQRYLYTDDACQTEAHLEIREDGTVGGAADQSPESLLQLKALKPGVIQILGVKTSRFLCQRPDGALYGSLHFDPEACSFRELLLEDGYNVYQSEAHGLPLHLPGCKSPHRDPAPRGPARFLPLPGLPPAPPEPPGILAPQPPDVGSSDPLSMVGSQGRSPSYAS

HTRF cAMP EC50 [1]: 131 pM | HTRF cAMP EC50 (Monkey GLP-1R): 113 pM | HTRF cAMP EC50 (Mouse GLP-1R): 127 pM
B6: GLP-1RA/FGF21 Fc fusion protein SEQ ID NO: 205 (Fc fusion)
chain: HGEGTFTSDLSKQLEKELVRLFYEWLIAGGHKSQKPPPKGGGGGGGSGGGGSGGGGSA[… human IgG4 Fc with changes …]GGGSGSAHPIPDSSPLLQFGGQVRQRYLYTDDACQTEAHLEIREDGTVGGAADQSPESLLQLKALKPGVIQILGVKTSRFLCQRPDGALYGSLHFDPEACSFRELLLEDGYNVYQSEAHGLPLHLPGCKSPHRDPAPRGPARFLPLPGLPPAPPEPPGILAPQPPDVGSSDPLSMVGSQGRSPSYAS

HTRF cAMP EC50 [1]: 96.9 pM | HTRF cAMP EC50 (Monkey GLP-1R): 102 pM | HTRF cAMP EC50 (Mouse GLP-1R): 89.2 pM
B7: GLP-1RA/FGF21 Fc fusion protein SEQ ID NO: 203 (Fc fusion)
chain: HGEGTFTSDLSKQLEKELVRLFYEWLIKGGHKSGKPPPKGGGGGGGSGGGGSGGGGSA[… human IgG4 Fc with changes …]GGGSGSAHPIPDSSPLLQFGGQVRQRYLYTDDACQTEAHLEIREDGTVGGAADQSPESLLQLKALKPGVIQILGVKTSRFLCQRPDGALYGSLHFDPEACSFRELLLEDGYNVYQSEAHGLPLHLPGCKSPHRDPAPRGPARFLPLPGLPPAPPEPPGILAPQPPDVGSSDPLSMVGSQGRSPSYAS

HTRF cAMP EC50 [1]: 126 pM | HTRF cAMP EC50 (Monkey GLP-1R): 174 pM | HTRF cAMP EC50 (Mouse GLP-1R): 325 pM | pFGFR ICW EC50 [2]: 30 nmol/L | pERK ICW EC50 [3]: 5.4 nmol/L
B8: GLP-1RA/FGF21 Fc fusion protein SEQ ID NO: 44 (Fc fusion)
chain: HGEGTFTSDLSIQLDEEAVRLFIEWLEATGPVSGAPPPSGGGGGGGSGGGGSGGGGSA[… human IgG1 Fc with changes …]GGGSGSAHPIPDSSPLLQFGGQVRQRYLYTDDACQTEAHLEIREDGTVGGAADQSPESLLQLKALKPGVIQILGVKTSRFLCQRPDGALYGSLHFDPEACSFRELLLEDGYNVYQSEAHGLPLHLPGCKSPHRDPAPRGPARFLPLPGLPPAPPEPPGILAPQPPDVGSSDPLSMVGSQGRSPSYAS

HTRF cAMP EC50 [1]: 40.1 pM | HTRF cAMP EC50 (Monkey GLP-1R): 73.3 pM | HTRF cAMP EC50 (Mouse GLP-1R): 95.3 pM
B9: GLP-1RA/FGF21 Fc fusion protein SEQ ID NO: 26 (Fc fusion)
chain: HGEGTFTSDLSILLDEEAVRLFIEWLLATGPVSGAPPPSGGGGGGGSGGGGSGGGGSA[… human IgG4 Fc with changes …]GGGSGSAHPIPDSSPLLQFGGQVRQRYLYTDDACQTEAHLEIREDGTVGGAADQSPESLLQLKALKPGVIQILGVKTSRFLCQRPDGALYGSLHFDPEACSFRELLLEDGYNVYQSEAHGLPLHLPGCKSPHRDPAPRGPARFLPLPGLPPAPPEPPGILAPQPPDVGSSDPLSMVGSQGRSPSYAS

HTRF cAMP EC50 [1]: 45.9 pM | HTRF cAMP EC50 (Monkey GLP-1R): 81.3 pM | HTRF cAMP EC50 (Mouse GLP-1R): 101 pM
B10: GLP-1RA/FGF21 Fc fusion protein SEQ ID NO: 25 (Fc fusion)
chain: HGEGTFTSDLSILLDEEAVRLFIEWLLATGPVSGAPPPSGGGGGGGSGGGGSGGGGSA[… human IgG4 Fc with changes …]GGGSGSAHPIPDSSPLLQFGGQVRQRYLYTDDACQTEAHLEIREDGTVGGAADQSPESLLQLKALKPGVIQILGVKTSRFLCQRPDGALYGSLHFDPEACSFRELLLEDGYNVYQSEAHGLPLHLCGNKSPHRDPAPRGPARFLPLPGLPPAPPEPPGILAPQPPDVGSSDPLSMVGSQGRSPSYAS

HTRF cAMP EC50 [1]: 32.9 pM | HTRF cAMP EC50 (Monkey GLP-1R): 68.7 pM | HTRF cAMP EC50 (Mouse GLP-1R): 107 pM
B11: GLP-1RA/FGF21 Fc fusion protein SEQ ID NO: 28 (Fc fusion)
chain: HGEGTFTSDLSILLDEEAVREFIEWLLATGPVSGAPPPSGGGGGGGSGGGGSGGGGSA[… human IgG4 Fc with changes …]GGGSGSAHPIPDSSPLLQFGGQVRQRYLYTDDACQTEAHLEIREDGTVGGAADQSPESLLQLKALKPGVIQILGVKTSRFLCQRPDGALYGSLHFDPEACSFRELLLEDGYNVYQSEAHGLPLHLCGNKSPHRDPAPRGPARFLPLPGLPPAPPEPPGILAPQPPDVGSSDPLSMVGSQGRSPSYAS
